The RNAGym collection of RNA variant scans (doi:10.1073/pnas.2313332121)
Variants at the floor of the assay are shown more often than the library holds them.

B1: TPR 5TU (parent)
chain: GGAUCUUCUCGAUCUAACAAAAAAGACAAAUCUGCCACAAAGCUUGAGAGCAUCUUCGGAUGCAGAGGCGGCAGCCUUCGGUGGCGCGAUAGCGCCAACGUUCUCAACUAUGACACGCAAAACGCGUGCUCCGUUGAAUGGAGUUUAUCAUG

Variants of: B1
Assay: polymerase ribozyme fitness, log enrichment relative to wild type (log ratio); higher = more active; in vitro selection for triplet polymerase activity
How it was run: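 Mutant libraries for each subunit of a heterodimeric triplet polymerase ribozyme were made by PCR and then transcribed. Each library underwent one round of in vitro selection in triplicate: annealing with a biotinylated primer, the partner subunit and triplets, frozen incubation at −7 °C, gel excision of extended constructs, streptavidin-bead capture and RT-PCR. Input and output libraries were Illumina-sequenced, and only genotypes with ≥10 input reads and ≥1 read per output were kept. Fitness is the logarithm, base 2, of genotype enrichment over wild-type enrichment, computed from inverse-variance-weighted replicate averages.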

Row | Variant | polymerase ribozyme fitness (log ratio)
1 | A137U G141U | -3.93
2 | G126U G152U | -2.47
3 | A142C U144A U148G | ≤ -4.2
4 | G141C U144A U151C | ≤ -4.2
5 | C129G | -2.45
6 | C129A | -2.46
7 | C129U | -0.0537
8 | G133A G141U | -3.08
9 | G136A A147G | -1.36
10 | U134A A142G | -3.04
11 | U144C A150C | -4.19
12 | U135A C149U | -0.66
13 | C129A U148G | -4.11
14 | U135G U146G | ≤ -4.2
15 | G126A C132G | -2.68
16 | C129G U130G G133A | ≤ -4.2
17 | U135G U144G | -2.41

Row | Variant | polymerase ribozyme fitness (log ratio)
18 | G128U A137U | -3.34
19 | G141A U144C | -3.08
20 | G133C U139C | ≤ -4.2
21 | U134A A137G | -3.22
22 | G126A A150G | -2.66
23 | G140A G143U | ≤ -4.2
24 | U151C | -2.78
25 | U151A | -3.44
26 | U151G | -3.49
27 | C149A | -3.33
28 | C149G | -2.78
29 | C149U | -0.847
30 | C131U U144G | -0.864
31 | G140U U146C | -3.33
32 | U139C C149G | ≤ -4.2
33 | C131G G133C G136U G141U | -3.43
